Results are given in words; binding and its absence hold for the method and conditions named. In cells and extracts the contact can be indirect. Some entries that bind do so weakly or less than the wild type.
Experiments:
Assay in all cases: FRET or BRET; acceptor photobleaching FRET in transfected, fixed and immunostained CHO-K1 cells; donor EGFP, acceptor Alexa Fluor 555
[1] = molecular target: human TMC1 (FRET, CHO-K1 cells) (human) (UniProt Q8TDI8)
[2] = molecular target: human TMC1 Δ77–86 (FRET, CHO-K1 cells) (human) (UniProt Q8TDI8)
[3] = molecular target: T1, human TMC2 (FRET, CHO-K1 cells) (human) (UniProt Q8TDI7)
T1 sequence: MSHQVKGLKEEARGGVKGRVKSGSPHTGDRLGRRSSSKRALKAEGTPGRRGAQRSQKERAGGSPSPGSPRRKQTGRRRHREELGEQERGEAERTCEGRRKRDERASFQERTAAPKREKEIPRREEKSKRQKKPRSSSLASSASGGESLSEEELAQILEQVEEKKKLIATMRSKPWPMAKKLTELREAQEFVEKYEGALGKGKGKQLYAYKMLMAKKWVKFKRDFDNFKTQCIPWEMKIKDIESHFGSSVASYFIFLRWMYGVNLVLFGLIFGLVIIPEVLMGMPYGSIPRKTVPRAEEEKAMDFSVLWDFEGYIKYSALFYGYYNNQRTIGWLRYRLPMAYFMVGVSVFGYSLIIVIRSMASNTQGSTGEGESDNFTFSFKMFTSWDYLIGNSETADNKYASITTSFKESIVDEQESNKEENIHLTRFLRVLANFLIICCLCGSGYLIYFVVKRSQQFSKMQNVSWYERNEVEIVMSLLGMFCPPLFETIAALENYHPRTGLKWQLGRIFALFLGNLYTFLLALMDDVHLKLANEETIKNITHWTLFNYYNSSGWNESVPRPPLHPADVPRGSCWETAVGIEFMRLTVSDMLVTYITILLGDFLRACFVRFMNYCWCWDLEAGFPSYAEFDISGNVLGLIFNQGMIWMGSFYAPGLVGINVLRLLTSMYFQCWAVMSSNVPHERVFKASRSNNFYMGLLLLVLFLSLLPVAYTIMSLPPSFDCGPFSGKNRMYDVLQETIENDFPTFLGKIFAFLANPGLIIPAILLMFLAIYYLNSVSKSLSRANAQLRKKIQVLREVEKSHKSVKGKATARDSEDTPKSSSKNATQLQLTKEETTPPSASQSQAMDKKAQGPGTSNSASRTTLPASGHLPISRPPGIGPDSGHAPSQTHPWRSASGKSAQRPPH

By UniProt entry, the sequences of proteins in these tests, tags left out. Where a name states a change or a piece, a line headed by the entry shows the natural chain unless it says otherwise. Chains listed by the source or under a name are the forms on record and can include a tag or linker.
UniProt Q8TDI8: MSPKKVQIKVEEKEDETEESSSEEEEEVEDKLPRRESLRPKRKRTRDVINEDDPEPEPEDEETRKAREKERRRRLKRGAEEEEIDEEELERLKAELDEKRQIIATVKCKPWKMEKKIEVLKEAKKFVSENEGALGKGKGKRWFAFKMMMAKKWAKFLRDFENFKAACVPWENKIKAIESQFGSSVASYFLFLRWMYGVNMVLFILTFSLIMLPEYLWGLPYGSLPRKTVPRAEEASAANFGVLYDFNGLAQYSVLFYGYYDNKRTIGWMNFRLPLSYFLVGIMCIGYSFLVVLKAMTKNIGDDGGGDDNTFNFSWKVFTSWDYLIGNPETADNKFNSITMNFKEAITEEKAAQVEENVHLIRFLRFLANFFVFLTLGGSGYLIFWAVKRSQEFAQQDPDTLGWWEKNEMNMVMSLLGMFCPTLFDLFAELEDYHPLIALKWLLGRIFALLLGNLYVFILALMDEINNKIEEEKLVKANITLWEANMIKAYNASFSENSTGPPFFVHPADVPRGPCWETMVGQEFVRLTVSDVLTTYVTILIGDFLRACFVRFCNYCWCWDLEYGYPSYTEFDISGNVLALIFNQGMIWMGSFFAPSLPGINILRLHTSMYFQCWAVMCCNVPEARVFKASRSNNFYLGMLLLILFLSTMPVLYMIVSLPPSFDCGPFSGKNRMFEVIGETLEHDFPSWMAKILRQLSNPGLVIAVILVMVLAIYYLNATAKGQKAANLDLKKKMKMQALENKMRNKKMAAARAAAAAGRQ
human TMC1 Δ77–86 (FRET, CHO-K1 cells) (Q8TDI8, form named): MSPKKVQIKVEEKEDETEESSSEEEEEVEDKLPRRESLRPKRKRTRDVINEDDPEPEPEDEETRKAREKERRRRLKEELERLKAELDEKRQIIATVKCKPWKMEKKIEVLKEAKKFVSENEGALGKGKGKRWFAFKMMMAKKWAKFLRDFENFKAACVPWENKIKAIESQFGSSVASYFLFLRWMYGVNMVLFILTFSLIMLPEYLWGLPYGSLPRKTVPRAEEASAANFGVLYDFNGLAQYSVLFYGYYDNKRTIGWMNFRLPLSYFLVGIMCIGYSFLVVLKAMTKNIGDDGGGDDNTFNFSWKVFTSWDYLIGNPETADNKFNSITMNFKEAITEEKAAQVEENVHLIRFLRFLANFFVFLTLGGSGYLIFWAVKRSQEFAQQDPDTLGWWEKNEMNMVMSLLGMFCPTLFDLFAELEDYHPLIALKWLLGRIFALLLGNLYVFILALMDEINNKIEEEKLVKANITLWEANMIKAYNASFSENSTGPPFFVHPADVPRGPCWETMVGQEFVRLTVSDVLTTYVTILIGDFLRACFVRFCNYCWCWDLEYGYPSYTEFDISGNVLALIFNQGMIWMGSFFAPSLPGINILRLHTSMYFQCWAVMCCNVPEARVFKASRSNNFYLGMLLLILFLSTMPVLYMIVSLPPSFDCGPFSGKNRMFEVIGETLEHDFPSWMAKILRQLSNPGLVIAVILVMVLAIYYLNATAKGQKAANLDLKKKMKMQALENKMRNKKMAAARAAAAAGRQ
UniProt O75838: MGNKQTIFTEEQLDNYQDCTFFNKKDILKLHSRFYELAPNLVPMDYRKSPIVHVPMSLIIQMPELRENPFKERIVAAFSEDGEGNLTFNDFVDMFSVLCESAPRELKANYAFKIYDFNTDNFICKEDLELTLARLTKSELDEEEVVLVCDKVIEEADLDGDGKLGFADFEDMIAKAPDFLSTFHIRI

Measured: binding

human CIB2 (FRET, CHO-K1 cells) (from UniProt O75838 1-187)
binds: all assays above

Reference: paper PMC7343241
